Test results: paper PMC7515635
No constants are given. Whether binding was seen depends on the method and setting. For some assays here: Binding seen in cells or lysates may run through a third protein. Some binding calls cover weakened binding; strength is not graded here. Sequences can lack the tags named with a protein.

Protein sequences, listed by entry. Tags and fused reporters are not part of them.
UniProt Q9FG23: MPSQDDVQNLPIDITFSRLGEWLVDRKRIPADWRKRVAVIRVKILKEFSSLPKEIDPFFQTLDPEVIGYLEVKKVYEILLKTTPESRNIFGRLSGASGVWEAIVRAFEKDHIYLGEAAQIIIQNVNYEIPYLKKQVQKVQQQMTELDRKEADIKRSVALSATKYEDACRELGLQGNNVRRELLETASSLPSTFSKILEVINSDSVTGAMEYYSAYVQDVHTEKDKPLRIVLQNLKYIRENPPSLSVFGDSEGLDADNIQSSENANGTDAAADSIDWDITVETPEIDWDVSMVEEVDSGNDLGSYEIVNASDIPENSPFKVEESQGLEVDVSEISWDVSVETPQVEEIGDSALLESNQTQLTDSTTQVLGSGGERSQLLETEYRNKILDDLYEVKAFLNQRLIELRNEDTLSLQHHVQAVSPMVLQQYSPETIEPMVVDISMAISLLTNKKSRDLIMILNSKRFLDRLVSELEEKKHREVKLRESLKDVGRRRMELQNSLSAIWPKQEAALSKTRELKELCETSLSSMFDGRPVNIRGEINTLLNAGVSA

Legend:
[1] = biological target: AtC53 (construct of Figure 9A) (Arabidopsis thaliana) (UniProt Q9FG23); test: pull-down; E. coli lysates with recombinant proteins mixed, glutathione magnetic agarose beads, 1 h 4°C, 100 mM sodium phosphate pH 7.2, 300 mM NaCl, 1 mM DTT, 0.01% IGEPAL; immunoblot; peptides at 200 µM where added
[2] = biological target: GST-GABARAP (human), O95166; test: SPR; qualitative; GST-GABARAP or GST-ATG8A captured; four sets of double consecutive injections of 10 µM analyte without or with 6.4 µM AIM wt or AIM mut peptide; 25°C; both purified; settings: remark: other sources report otherwise

binding [1]	binding [2]	Binder
binds	–	MBP-ATG8A (protein, UniProt Q8LEM4 1-117) MAKSSFKISNPLEARMSESSRIREKYPDRIPVIVEKAGQSDVPDIDKKKYLVPADLTVGQFVYVVRKRIKLGAEKAIFVFVKNTLPPTAALMSAIYEEHKDEDGFLYMTYSGENTFG
–	no binding (tested: 10 µM)	HIS6-HsC53 ^(sAIM(W269A, W294A, W312A)), Q96JB5 1-506 (protein) MEDHQHVPIDIQTSKLLDWLVDRRHCSLKWQSLVLTIREKINAAIQDMPESEEIAQLLSGSYIHYFHCLRILDLLKGTEASTKNIFGRYSSQRMKDWQEIIALYEKDNTYLVELSSLLVRNVNYEIPSLKKQIAKCQQLQQEYSRKEEECQAGAAEMREQFYHSCKQYGITGENVRGELLALVKDLPSQLAEIGAAAQQSLGEAIDVYQASVGFVCESPTEQVLPMLRFVQKRGNSTVYEWRTGTEPSVVERPHLEELPEQVAEDAIDAGDFGVEAVSEGTDSGISAEAAGIDAGIFPESDSKDPGGDGIDAGDDAVALQITVLEAGTQAPEGVARGPDALTLLEYTETRNQFLDELMELEIFLAQRAVELSEEADVLSVSQFQLAPAILQGQTKEKMVTMVSVLEDLIGKLTSLQLQHLFMILASPRYVDRVTEFLQQKLKQSQLLALKKELMVQKQQEALEEQAALEPKLDLLLEKTKELQKLIEADISKRYSGRPVNLMGTSL
